# In article PMC10668032:
# This is one part of the list. At the low end of the ranking the order means little.
# Target: SIX1-Q177R homeodomain (UniProt Q15475)
# Experiment: universal protein binding microarray
# Details: Universal all-10-mer PBM (8x60K, AMADID 030236), 300 nM GST-tagged protein, Alexa Fluor 488 anti-GST; buffer, salt, pH and temperature not stated; high values mean tight binding; most listed sequences are background and not binding sites; double strand, one strand shown
row,Sequence,binding signal [E-score]
1,GCAGCCTA,-0.321
2,TGTAGAAA,0.225
3,AGAGGAAA,-0.105
4,AATCCTCC,-0.0411
5,GCAATGAA,-0.117
6,CAGGCACG,-0.0376
7,ATCTAATG,-0.148
8,ACCTTGTC,0.0228
9,AAAACGCC,-0.0522
10,CAGGACCG,-0.263
11,GCACGCTA,-0.0536
12,CGGCCGGA,-0.113
13,CTGCGCAC,-0.074
14,CACGACGA,0.0733
15,CGGCACTC,-0.135
16,GTTGGAGA,0.115
17,GAAGTGCA,-0.106
18,GAACCGCC,-0.0714
19,AAGAAGAT,-0.0845
20,GGTGGAAA,-0.026
21,CGGGTTAC,0.159
22,TAGGATAA,0.0267
23,AGGGTACG,0.108
24,AAAACAGC,-0.208
25,GCCGCTCC,0.0452

row,Sequence,binding signal [E-score]
1,CCTCCCTA,0.123
2,GTCACAAC,0.0413
3,CTCTGGTA,0.004
4,AGACCAAG,-0.114
5,AATCCATT,-0.09
6,CATTCGTC,-0.111
7,CACGGAAA,0.188
8,GCCGTCCC,-0.243
9,CGCACAAC,0.0675
10,CATGTACG,0.0126
11,AGGCGGAA,-0.12
12,GCCGTCGC,-0.131
13,TAAGCCAA,-0.172
14,ACATATAT,-0.0591
15,GACAATTA,-0.0168
16,CGACACAC,0.345
17,CTGCCCAG,-0.178
18,GCCCGTCA,-0.31
19,CTTTCAAA,-0.235
20,GAATTCAA,-0.171
21,AGTTGTAA,-0.207
22,TAGCTACA,0.209
23,CCACCACA,0.108
24,ATTCGGGG,0.176
25,CCCAAGAC,-0.0246

row,Sequence,binding signal [E-score]
1,GGTTTCCA,-0.0211
2,CGACCGGC,-0.191
3,AACGCTCG,-0.0221
4,TACGATGA,-0.195
5,CGGCCAGC,-0.0439
6,CAATGGGG,0.12
7,AGTATGAA,-0.175
8,CACCCTAG,0.347
9,GGGCTCGA,0.058
10,CCAAGTAC,0.049
11,AAGAGAGA,-0.154
12,AGATTACG,-0.0816
13,CTTACACC,0.478
14,CGTCACAG,-0.0338
15,AGCCGTGG,-0.0758
16,ATTACCCA,0.0427
17,ACAACGAT,-0.0936
18,GGGAATGA,0.0564
19,GACTACGA,-0.126
20,ACCCTTTG,0.154
21,ATTACGGG,-0.0647
22,CGGCCCAC,-0.102
23,AGTGACCG,-0.0505
24,AACATGTA,-0.114
25,AGCTCGGC,-0.212

row,Sequence,binding signal [E-score]
1,ACTCCCAA,0.11
2,ATTCCACG,-0.066
3,AATAAGAG,-0.0565
4,GGCAACAA,-0.111
5,AGTGTCCC,0.379
6,CCACAGAC,-0.146
7,CACCCATC,0.277
8,CCCTAACA,0.181
9,AATGCCGC,-0.144
10,ACGGGACG,-0.143
11,CGGGTATA,0.21
12,TAATGGCA,-0.225
13,TAAGGACA,0.142
14,CATGTATA,-0.157
15,AAATAAAA,-0.0799
16,GTCGAACA,0.119
17,CATGGCTC,-0.167
18,GGAAGGGA,-0.188
19,GTATGTTA,0.0962
20,CTTACTCA,-0.0652
21,CATGAGCG,-0.369
22,GGCTCACC,-0.093
23,CGGATACG,0.128
24,CGCACAGC,-0.0467
25,GATTCTGC,-0.175

row,Sequence,binding signal [E-score]
1,AATCGAAA,-0.248
2,TTCCCGAA,0.00062
3,CAAATAGG,0.011
4,CCGGGCGA,0.151
5,AAATTCTG,-0.074
6,GGCGGGAA,0.00054
7,ACGGTCAA,0.0475
8,AGGTTGTC,0.0665
9,CTGCGATC,0.0103
10,GCTACCTA,-0.23
11,AGTCGGGA,0.0497
12,CTGTATGA,-0.117
13,CAAGTCAG,-0.135
14,CTCCCTTC,0.0495
15,ATATCGCC,-0.107
16,GTCGTAAC,0.142
17,GACATTCA,-0.0873
18,GCGCTGGA,-0.182
19,GAGATTCA,0.0252
20,ATGGACTC,-0.00551
21,CGACCCAG,0.0629
22,CGTGAGAA,-0.0508
23,AAGGCATC,-0.171
24,CAGAAAGA,-0.0959
25,AGCCTAAA,-0.0843

row,Sequence,binding signal [E-score]
1,CCCTACTC,0.19
2,CCAGACGG,-0.135
3,AAAGTCAA,-0.119
4,ACCAATAC,0.157
5,AACACATG,0.0393
6,CGTCATTC,0.105
7,GTTACGAA,-0.224
8,CAATTGAG,-0.122
9,ACTCCCTA,0.0637
10,TAGAATGA,-0.00577
11,TAGTGTGA,0.258
12,CGCCACAG,-0.00816
13,GAGGGTCC,-0.0954
14,AAACTAAC,-0.0659
15,ATGACAGG,-0.161
16,AAGCTGCG,-0.0893
17,ACACCACG,0.477
18,CGCCCGAG,0.0232
19,CCATGTGA,0.0239
20,GCTAGCCC,-0.25
21,GAATAAAA,-0.0519
22,ACTCGTCA,0.0677
23,AGTAGGTA,-0.0851
24,ATGTTGTG,-0.106
25,AGTCAAGC,-0.206

row,Sequence,binding signal [E-score]
1,CAGACGAC,0.0216
2,ATCCGTAG,-0.0994
3,AAGGCGTC,0.129
4,GCTTAATA,-0.0465
5,CGACACGA,0.421
6,CGGACGTA,-0.00201
7,CAGCCCTG,-0.0658
8,AACATAGC,-0.105
9,ATTGAGTC,0.117
10,GAAAGTAA,-0.096
11,AGCGTAGG,-0.0333
12,CCATGGGA,0.153
13,CTGCTCTA,-0.041
14,GAACTTGC,-0.139
15,CATTATGA,-0.196
16,CCGATGTA,0.0189
17,CGACCGGA,-0.0307
18,CGTTCATC,-0.0613
19,GAACGTGC,-0.192
20,GAATCAGC,-0.175
21,ATGAAGAA,-0.133
22,GGTGTCGA,0.487
23,AAGTTCTA,-0.156
24,CGGCCCCA,-0.112
25,AAACGCAA,-0.083

row,Sequence,binding signal [E-score]
1,ATCTCATA,-0.114
2,TCGAAACA,0.111
3,GGACCCTA,0.0373
4,ACCGTCTG,-0.0931
5,AGGAGGGA,-0.0403
6,TCCGATAA,-0.0829
7,AAAGCCCT,-0.258
8,CCCAAGGA,0.145
9,CCAGGGTC,0.0483
10,GTGAAAGA,-0.138
11,TAGATAAA,-0.0107
12,CATGGTGG,0.192
13,AAAGTAGT,-0.0542
14,GTACTAAC,0.0577
15,CCGGCGCC,-0.0804
16,TAAAAGGA,-0.155
17,GCATTGAC,0.075
18,GGCCCAGA,-0.271
19,GCGGATTA,0.0242
20,ACGGCACT,-0.0842
21,CTATAAGC,-0.174
22,GTTTGGTA,0.0612
23,ACTCGTAG,0.0813
24,ACTGTTAA,-0.0992
25,ATGATCAG,-0.133

row,Sequence,binding signal [E-score]
1,ACGATAAG,-0.094
2,AAGTCGAG,0.0559
3,TACCCGTA,0.168
4,CGCTCACG,-0.137
5,GGTGCTAA,0.212
6,ACCACAGT,0.22
7,TTACGCAA,-0.0846
8,AATCCAGC,-0.118
9,TCGGGGAA,0.172
10,AACACACG,0.231
11,AACGAAGG,-0.324
12,ACGCCTGG,0.128
13,AATTTGCC,-0.283
14,GGAAGCGA,-0.238
15,ACTCAACT,-0.0929
16,AGATGAGG,-0.135
17,ACCGAATC,0.00705
18,ACCGTTCA,0.0409
19,ATTCTAGC,0.0215
20,CACCCTAC,0.387
21,CGATCAAC,-0.146
22,AAATCAGA,-0.0536
23,CCGCGGAG,0.0522
24,CGAAGAAG,-0.0975
25,ACCGTATG,0.0424

row,Sequence,binding signal [E-score]
1,ACGGCGCT,-0.147
2,CAGGAAGC,-0.183
3,TTCCGGAA,0.119
4,CATACTGG,-0.0355
5,CCTAGCAA,0.0893
6,ACAGGAAA,-0.075
7,CAAGAAGG,0.0701
8,AATTGCGG,-0.0813
9,GTCATAAC,0.069
10,GTTGTCGA,-0.00152
11,CTGGTTTC,-0.252
12,GGTACTGA,0.0678
13,TAGCACAA,-0.198
14,CCTTGATA,-0.0158
15,AACAGGGT,0.0771
16,GCTTCAAC,0.0341
17,TTGGCCAA,0.062
18,AGCCTGGG,0.0236
19,CGCTGTGC,-0.0677
20,CCGATCAG,-0.154
21,AAGCCAAT,-0.135
22,GACGAGCC,0.0315
23,ACGCCGAG,0.144
24,CTCACCGC,0.0619
25,AATCCGTC,-0.0414

row,Sequence,binding signal [E-score]
1,ACAAAACT,-0.0435
2,GAAAACGA,-0.152
3,AGTGCCAT,0.0922
4,AGACGTCA,-0.0593
5,CAAACTAC,0.0067
6,CGAGAGCC,-0.209
7,CGGAAACG,0.038
8,GGCAGTAC,-0.077
9,GAGCCATA,-0.136
10,GGACCGGA,-0.102
11,CTCCCACC,-0.0694
12,AGCTGCCA,-0.243
13,AACTCCTG,0.122
14,ACAAGCAG,-0.0622
15,AGTACCCG,0.154
16,CTAGCAAC,0.0621
17,AAAGTCAG,-0.179
18,CGGTTTAA,-4e-05
19,GCCAGTAC,-0.101
20,AGAGATCC,-0.0895
21,AAGGTCCC,-0.195
22,CCATTCAG,-0.0783
23,TCCGCAAA,-0.136
24,GCCCACAC,0.255
25,CTGATTTA,-0.0876

row,Sequence,binding signal [E-score]
1,CCGATACC,0.361
2,AGGCTGAG,-0.157
3,CGTACGGA,-0.012
4,CCGCGTAC,0.148
5,GACTCCCC,0.161
6,GTGTGTTA,0.298
7,GCAAGTCC,-0.0545
8,CGATTAAC,0.227
9,ACCGCACC,0.247
10,CTGCAGGA,-0.166
11,CGCGCAAC,0.0495
12,CACTGAAA,0.0961
13,CAGATATC,0.0442
14,AAAAATGC,0.0151
15,GCGAAGTA,-0.14
16,CCTAAGGA,0.0374
17,ATCGCGCG,-0.0473
18,AGGGTATG,0.226
19,AGACGGGG,0.0576
20,AGCGTCGG,-0.126
21,AGCAAATA,-0.192
22,ATTGCTCA,-0.154
23,CTCAAGAG,-0.217
24,AGGATGGA,-0.255
25,ACCCGCCT,0.206

row,Sequence,binding signal [E-score]
1,AAAACCTA,-0.252
2,CCCGCCAA,0.00322
3,GGGGAGGA,0.00218
4,TCGCTGCA,-0.278
5,GTGCGGAA,0.0821
6,ACAGTTTA,-0.0784
7,GACTCGTA,0.0647
8,ATGGCAAG,-0.264
9,AGCATCCG,0.03
10,TACTAACA,0.185
11,TCACACGA,0.226
12,CGCTTGGC,-0.0892
13,ATGGGTGG,0.0958
14,AAAAAAGC,-0.357
15,CTAATACC,0.0317
16,CCTCGCAC,0.131
17,ATTGCACG,0.00949
18,ACGACAGC,-0.106
19,ACATCACC,-0.0533
20,CGAGAGAG,-0.023
21,AATCCGAG,-0.0428
22,ACCCTTGA,0.146
23,CGGCCGGC,-0.0369
24,AAGGTGCG,0.09
25,ACCCGTAC,0.134

row,Sequence,binding signal [E-score]
1,ACCACATG,0.0728
2,ATTAGATG,-0.0667
3,CCTCCATC,-0.0436
4,ATGCCCTG,0.00891
5,CCGGGGTC,0.323
6,GATTAGGA,-0.183
7,AAATAGGA,-0.132
8,GGGAATTA,-0.141
9,GCTAACGA,-0.004
10,ACGCTAAT,-0.263
11,CGACCCCG,0.255
12,AAGACCCA,-0.259
13,TCCGGCAA,-0.00316
14,CTGTAACC,-0.0031
15,GCGGCCGA,-0.186
16,GAGAAGCC,-0.194
17,ATCCAGCA,-0.13
18,CGAAACAC,0.339
19,AAACAAGA,-0.0272
